The values below come from the antibiotic and cytotoxicity screens of Wong et al. (2023).

The list shows a part of the results.

This test relates to HepG2. In words: cytotoxicity call (relative viability < 0.9). The settings on record: 10 µM.
For the compound `NCC(O)c1ccc(O)c(O)c1.O=C(O)C(O)C(O)C(=O)O` (stereo unspecified), the cytotoxicity call is “active”.
With `C=CC(=O)Nc1cccc([C@@H](CCc2ccc(OC)c(OC)c2)OC(=O)[C@@H]2CCCCN2C(=O)C(=O)C(C)(C)CC)c1` the entry was “inactive”; with `Cc1ccc(S(=O)(=O)Nc2ccc3c(c2)C(=O)N([C@H](C)CO)C[C@H](C)[C@H](CN(C)S(=O)(=O)c2cn(C)cn2)O3)cc1`, “inactive”; with `C[C@@H]1O[C@@H](O[C@H]2[C@H](O)[C@@H](O)[C@H](OC[C@H]3O[C@@H](OC(=O)[C@]45CCC(C)(C)C[C@@H]4C4=CC[C@H]6[C@@]7(C)CC[C@H](O[C@H]8OC[C@H](O)[C@H](O)[C@H]8O[C@H]8O[C@@H](C)[C@H](O)[C@@H](O)[C@H]8O)[C@@](C)(CO)[C@@H]7CC[C@@]6(C)[C@]4(C)CC5)[C@H](O)[C@@H](O)[C@@H]3O)O[C@@H]2CO)[C@H](O)[C@H](O)[C@H]1O`, “inactive”.
Take `NCc1ccc(C(=O)O)cc1`: the cytotoxicity call is “inactive”.
On to `CC(C)NC(=O)Nc1cccc2c1O[C@@H](CN(C)Cc1ccc(-c3ccccc3)cc1)[C@H](C)CN([C@H](C)CO)C2=O`, for which the cytotoxicity call is “inactive”.
With `CN1CCN(C(=O)C[C@H]2CC[C@@H]3[C@H](COc4ccc(NC(=O)C5CCOCC5)cc4C(=O)N3C)O2)CC1`, the cytotoxicity call was “inactive”.
With `C[C@H](CO)N1C[C@H](C)[C@H](CN(C)S(=O)(=O)c2ccc(Cl)cc2)OCCCC[C@H](C)Oc2ccc(NS(=O)(=O)c3ccc(F)cc3)cc2C1=O` the entry was “active”; with `C[C@@H]1CN([C@@H](C)CO)C(=O)c2cccc(NC(=O)c3ccc(-c4nccs4)cc3)c2O[C@@H]1CN(C)Cc1ccc(-c2ccccc2)cc1`, “active”.
The value for `COc1ccc(S(=O)(=O)Nc2ccc3c(c2)CC(=O)N([C@@H](C)CO)C[C@@H](C)[C@H](CN(C)C(=O)Nc2c(C)noc2C)O3)cc1` was “inactive”; that for `C[C@@H]1CN([C@H](C)CO)C(=O)c2cc(NS(=O)(=O)c3ccccc3)ccc2O[C@H]1CN(C)S(=O)(=O)c1ccccc1` was “inactive”; that for `C[C@@H]1CN([C@H](C)CO)C(=O)c2cc(NC(=O)CCN3CCOCC3)ccc2O[C@H]1CN(C)C(=O)NC1CCCCC1` was “inactive”.
For `CC(C)NC(=O)N(C)C[C@H]1Oc2cc(C#Cc3cccc(F)c3)ccc2S(=O)(=O)N([C@H](C)CO)C[C@@H]1C`, the cytotoxicity call is “inactive”.
Turning to `COC1=C(N)C(=O)c2nc(-c3nc(C(=O)O)c(C)c(-c4ccc(OC)c(OC)c4O)c3N)ccc2C1=O`, the cytotoxicity call is “active”.
The value for `C[C@H](CO)N1C[C@H](C)[C@H](CN(C)S(=O)(=O)c2cn(C)cn2)Oc2ncc(-c3ccc(F)cc3)cc2C1=O` was “inactive”; that for `C[C@H]1CN([C@@H](C)CO)C(=O)c2cc(NC(=O)Nc3ccc4c(c3)OCO4)ccc2O[C@H]1CN(C)Cc1ccc(-c2ccccc2)cc1` was “inactive”; that for `C[C@@H]1CN([C@@H](C)CO)C(=O)c2cccc(NC(=O)Nc3ccc(C(F)(F)F)cc3)c2O[C@@H]1CN(C)Cc1ccccc1` was “inactive”.
With `COc1ccc(S(=O)(=O)Nc2ccc3c(c2)CC(=O)N([C@H](C)CO)C[C@H](C)[C@H](CN(C)Cc2ccc(-c4ccccc4)cc2)O3)cc1` the entry was “active”; with `C[C@@H]1CN([C@H](C)CO)C(=O)c2cc(C#CC3(O)CCCC3)cnc2O[C@@H]1CN(C)S(=O)(=O)c1cccc(F)c1`, “inactive”.
For the compound `O=C(C[C@@H]1CC[C@H]2[C@@H](COC[C@@H](O)CN2C(=O)c2ccncc2)O1)NCc1ccc(-c2ccccc2)cc1`, the cytotoxicity call was “inactive”.
The value for `Cc1noc(C)c1S(=O)(=O)Nc1ccc2c(c1)C(=O)N([C@H](C)CO)C[C@@H](C)[C@H](CN(C)Cc1ccc(C(F)(F)F)cc1)OCCCC[C@@H](C)O2` was “inactive”; that for `COc1ccc(NC(=O)N(C)C[C@H]2OCCCC[C@H](C)Oc3ccc(NC(=O)c4ccncc4)cc3C(=O)N([C@@H](C)CO)C[C@H]2C)cc1` was “inactive”; that for `C[C@@H]1CCCCO[C@@H](CN(C)C(=O)Nc2ccccc2)[C@H](C)CN([C@@H](C)CO)C(=O)c2cc(NS(=O)(=O)c3ccc(F)cc3)ccc2O1` was “inactive”.
On to `C[C@@H]1CN([C@H](C)CO)C(=O)c2cc(NC(=O)Cc3ccccc3)ccc2O[C@@H](C)CCCCO[C@H]1CN(C)Cc1ccc(C(=O)O)cc1`, for which the cytotoxicity call was “inactive”.
With `C[C@H](CO)N1C[C@H](C)[C@H](CN(C)Cc2cccc(C(F)(F)F)c2)OCc2ccccc2-c2ccccc2C1=O` the entry was “inactive”; with `COC(=O)NCCOc1nc(N(C)C)nc(N(C)C)n1`, “inactive”.
